In the supplement of paper PMC3334620:
Over roughly 33,000 sequences, “E-score (-0.5 to 0.5)” has its median near -0.011; the highest 2% begin near 0.28. This is one part of the list.

Target: T1, Gcr1 (UniProt P07261)
T1 sequence: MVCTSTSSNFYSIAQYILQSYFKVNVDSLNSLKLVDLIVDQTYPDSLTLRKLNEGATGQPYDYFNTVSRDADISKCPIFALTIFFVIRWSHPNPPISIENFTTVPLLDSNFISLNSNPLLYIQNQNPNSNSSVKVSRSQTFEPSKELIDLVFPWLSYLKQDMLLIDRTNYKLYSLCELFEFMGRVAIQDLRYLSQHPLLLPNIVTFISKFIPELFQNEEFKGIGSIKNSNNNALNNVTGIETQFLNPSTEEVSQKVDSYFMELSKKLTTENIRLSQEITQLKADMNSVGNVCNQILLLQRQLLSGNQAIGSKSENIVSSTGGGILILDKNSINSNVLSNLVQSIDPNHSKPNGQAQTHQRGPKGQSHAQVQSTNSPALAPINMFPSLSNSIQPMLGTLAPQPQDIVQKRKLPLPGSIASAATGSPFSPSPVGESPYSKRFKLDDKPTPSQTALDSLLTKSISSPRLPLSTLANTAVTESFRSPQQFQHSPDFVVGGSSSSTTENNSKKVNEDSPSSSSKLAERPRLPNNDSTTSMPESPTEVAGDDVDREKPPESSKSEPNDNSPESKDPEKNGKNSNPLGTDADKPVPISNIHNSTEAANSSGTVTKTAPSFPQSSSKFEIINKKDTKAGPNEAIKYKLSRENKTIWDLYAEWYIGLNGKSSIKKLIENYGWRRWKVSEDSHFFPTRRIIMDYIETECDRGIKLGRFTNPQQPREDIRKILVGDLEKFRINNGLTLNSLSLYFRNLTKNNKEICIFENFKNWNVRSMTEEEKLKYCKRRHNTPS
Experiment: PBM E-score (8-mer binding enrichment) (E-score (-0.5 to 0.5)); higher = stronger / more preferred TF binding; most listed sequences are background and not binding sites
Settings: protein concentration: 100 nM; construct: GST-full length
Outline: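 GST-tagged yeast TFs (full-length or DNA-binding domain) were made by PURExpress in vitro transcription/translation and applied at about 100-200 nM to universal all-10-mer Agilent arrays. The arrays were made double-stranded by primer extension, on fresh or once-stripped slides. Bound protein was detected with fluorescent anti-GST, and scans were normalised with masliner. Each ungapped eight-base word, pooled with its reverse complement, received an E-score (modified Wilcoxon-Mann-Whitney statistic) from the Universal PBM Analysis Suite.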

Sequence	PBM E-score
AGGAGGAT	-0.0867
TGTAAACA	-0.0469
CATCGCTA	-0.0625
CCGGAAAG	0.0993
GTAGGTAA	-0.158
TAACCACA	-0.0752
ATAACGCA	-0.0972
CTAATGTA	0.00048
GAAGAAAC	-0.154
ACAGCTAC	0.00105
AAACTAAA	0.066
GCTCGTCA	-0.0675
GGCTAACC	-0.199
CGCATTTC	-0.0203
ACATGTAC	0.0438
CTCTGACC	-0.22
CTTCTGTC	0.2
ACGGTCAT	-0.23
CGGGAAAG	-0.168
CACGGAGC	0.101
GGACGTAA	-0.142
GGGAACTA	-0.0255
CCAAATCA	0.0691
TGGATCAA	-0.0326
ACGGATGC	0.183

Sequence	PBM E-score
ACCCATGA	-0.0601
ACCCCCGA	-0.128
GCATACCA	0.0234
AGTCTGTA	-0.152
ATAGACCC	-0.156
CAGTCGAC	0.113
ATCGCATC	0.148
GAGCCCGC	0.0531
GATGAAGA	-0.0906
GGCTCCAA	0.21
AGAGTGGC	-0.0394
AGCTCAAT	0.077
AGTAGAGC	0.0186
CTTACTCA	-0.238
CCAGCAGG	-0.157
GTGCGGTA	-0.0724
AACCTCTA	0.174
CTGTTTTC	0.0702
ACAGGAGC	0.136
CTGCGCCA	-0.135
AACTTCGC	0.0855
TGTCCGAA	0.119
AGGTTGAG	-0.162
ATAATGAC	-0.165
ACAGGACG	0.26

Sequence	PBM E-score
GTTTAAAC	-0.0684
GTAACGGA	-0.0344
AAGAGCTT	-0.0201
GTAAGGAC	-0.224
ATAGAAAC	0.171
CCGGTACC	0.0145
AACGTATC	-0.119
AGGTCTGC	-0.0299
AACTGGAG	0.115
CCTCCGTC	-0.3
GAAGTGTA	-0.161
ACGCTATC	0.036
AGTAGACG	0.302
AATACTAC	0.0602
TATGACCA	-0.0479
CGTGTAAG	0.142
CCCAGGAC	-0.0507
GCGTGCCA	-0.186
ATACTATC	-0.169
GATTCCAA	0.416
CTATCGGA	0.0265
ATCCCGGC	0.051
AAGCACAC	0.137
CTAATCCC	0.0895
CAGGCTGG	-0.174

Sequence	PBM E-score
CTGTGCGA	-0.147
CTGGAGTA	0.00472
AACAAAGA	0.00016
AAACAGCA	0.0823
AAGTCTGC	0.0313
ATTTCCGA	0.0903
TGTTTCAA	0.0895
CTAGACCC	-0.0797
GCAATATA	0.0306
AAAGCGCG	-0.0766
ACCCCCAA	-0.0644
ACGCCTAA	0.155
AGACTTCG	0.103
GCTACGGA	-0.0343
CAACACGC	-0.078
CGCCCATC	0.153
CGTGAGTC	-0.194
AGACCTTG	-0.173
ATGGGCTC	0.102
ACTCCGAT	-0.0465
CGATCTAG	-0.164
ACTAATAA	0.218
CGCGTACG	0.0697
AAACCTCC	-0.207
AGTTCTGC	-0.0323

Sequence	PBM E-score
ACCGGCTG	0.24
CAAGCTTC	0.232
ACGGAACA	0.169
CCAATAAC	0.0959
GTTATCAA	-0.0438
GCGACGTA	0.0483
ACCGCGAA	0.0692
CATACCCC	0.0232
CTTACTGC	-0.136
ATCAGCGA	-0.109
CTTATGGA	-0.0512
AACGTGAA	-0.0305
GGTCATAC	-0.197
GCCCCTCA	-0.094
CGACACGC	-0.0997
AATAGCTC	-0.176
ATGATGGA	0.0288
ATCGATCG	-0.165
GATCGTGA	-0.151
CCACGTCA	-0.0982
AAACGCCT	-0.198
CAGATACG	0.103
AGATATGA	0.0266
GGACATCA	-0.0546
AAAAAGTT	0.0512

Sequence	PBM E-score
AGATGTTA	-0.208
TGAATTCA	0.00695
CGTCTGCA	0.0942
GAAATGTA	0.175
CGAGTGAA	-0.202
CGCTCAGC	-0.0214
CAGAATAC	0.152
TGACCGCA	-0.0508
AAATCTCA	0.0941
GACTTCCA	0.319
CATCTCAA	0.0337
GTCTGAGA	-0.0892
ATCTAGAC	0.0936
CTCGAAGA	-0.136
TAAATGTA	-0.0458
GAGGGTTA	-0.17
AGGGTCAC	-0.215
CCAATCCG	0.144
AGCAAATC	-0.0226
GGAGAGGA	0.0158
AATGTAAC	-0.0323
CCCCGCAC	0.0651
CCATGGGC	0.0107
CATTCTCG	-0.0113
ACGTCATC	0.0184

Sequence	PBM E-score
GAGTCAAA	-0.086
AGCTAAGA	0.162
ACTGTTGC	-0.0291
GCCGACCC	-0.157
GCCGTGTA	-0.0249
CGCCCATA	0.0786
TAGTCAGA	0.0371
CAACACTC	-0.03
GGTGTGAC	-0.205
ATTGATAC	0.0697
CACATAAA	0.106
ACGGCACG	-0.0602
CGTATGTA	-0.07
TACTCACA	0.0331
AATTGCAG	0.0997
GAGGGTCC	-0.0308
AACTCATG	-0.0407
CTGAACTA	0.0431
CCTTGACC	-0.145
GGCGAGAA	-0.106
AGTCCGTG	-0.0968
TTGCCCAA	-0.0789
